Some test systems named below: A101D; A2058; A375.
Assay in all cases: cell count relative to DMSO control; melanoma cells; higher = more viable cells
What all share (conditions): library dose: standard library concentration; 72 h

The list shows a part of the results. Single values are uncertain, as repeats are few or missing.
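Further: cells treated in 1,536-well plates, then fixed and DAPI-stained, with nuclei counted from automated high-throughput microscope images.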

For the compound `O=C(O)c1ccc2c(c1)nc(Nc1cccc(Cl)c1)c1ccncc12` + Cn1cncc1[C@@](N)(c1ccc(Cl)cc1)c1ccc2c(c1)c(-c1cccc(Cl)c1)cc(=O)n2C [tipifarnib] (first compound 2 µM, partner dose 0.05 µM), the cell count in the experiment with A101D was 66.6%; in the experiment with A2058 it was 57.8%; in the experiment with A375, 85.5%.
In the same order, the values of `O=C(Nc1cc(C(F)(F)F)cc(C(F)(F)F)c1)c1cc(Cl)ccc1O` + CCCS(=O)(=O)Nc1ccc(F)c(C(=O)c2c[nH]c3ncc(Cl)cc23)c1F [PLX4720] (first compound 0.08 µM, partner dose 0.4 µM) are 86.8%, 95.6% and 94.6%.
In the same order, the values of `O=C(Nc1cc(C(F)(F)F)cc(C(F)(F)F)c1)c1cc(Cl)ccc1O` + CO[C@H]1C[C@@H]2CC[C@@H](C)[C@@](O)(O2)C(=O)C(=O)N2CCCC[C@H]2C(=O)O[C@H]([C@H](C)C[C@@H]2CC[C@@H](OCCO)[C@H](OC)C2)CC(=O)[C@H](C)/C=C(\C)[C@@H](O)[C@@H](OC)C(=O)[C@H](C)C[C@H](C)/C=C/C=C/C=C/1C [everolimus] (first compound 0.08 µM, partner dose 0.1 µM) are 79.2%, 73.5% and 87.1%.
In the same order, the values of `Cn1nnc2c(C(N)=O)ncn2c1=O` [temozolomide] + Cc1cc(N2CCOCC2)cc2[nH]c(-c3c(NC[C@@H](O)c4cccc(Cl)c4)cc[nH]c3=O)nc12 [BMS536924] (first compound 10 µM, partner dose 1 µM) are 83.5%, 51.2% and 73.7%.
As to `O=C(Nc1cc(C(F)(F)F)cc(C(F)(F)F)c1)c1cc(Cl)ccc1O` + C=CCn1c(=O)c2cnc(Nc3ccc(N4CCN(C)CC4)cc3)nc2n1-c1cccc(C(C)(C)O)n1 [MK1775] (first compound 0.08 µM, partner dose 0.1 µM), the cell count worked out at 82.9% with A101D, 97.1% in the experiment with A2058 and 64.3% in the experiment on A375.
In the same order, the values of `O=C(O)[C@@H]1[O][Sb](=[O])([O][Sb]2(=[O])[O][C@H]([C@H](O)CO)[C@H](O)[C@H](C(=O)O)[O]2)[O][C@H]([C@H](O)CO)[C@@H]1O` (stereo partly specified) [stibogluconate] + O=C(O)c1ccc2c(c1)nc(Nc1cccc(Cl)c1)c1ccncc12 [CX4945] (first compound 10 µM, partner dose 2 µM) are 69.8%, 93% and 87.1%.
In the same order, the values of `O=C(O)[C@@H]1[O][Sb](=[O])([O][Sb]2(=[O])[O][C@H]([C@H](O)CO)[C@H](O)[C@H](C(=O)O)[O]2)[O][C@H]([C@H](O)CO)[C@@H]1O` (stereo partly specified) [stibogluconate] + Cn1nnc2c(C(N)=O)ncn2c1=O [temozolomide] (first compound 10 µM, partner dose 10 µM) are 72.1%, 44.9% and 98.5%.

These data come from the supplement of paper PMC4604168 (melanoma cell lines).
